In all, about 73,000 compounds went through this assay and about 1,800 (2.5%) were called active. The shares of active, inactive and inconclusive entries below differ from those in the screen. Calls come from the whole dose curve; as a rule, active = well fitted activation curve with a large enough effect; inconclusive = small, poorly fitted or top-dose-only effect; inactive = no such curve, though single readings can be large or run the other way. No potency is given beside an inconclusive call; the fits are too rough.
assay: qHTS Assay for Agonists of the Thyroid Stimulating Hormone Receptor: Activators of Intracellular cAMP Concentrations in Parental HEK 293; settings: parental HEK293 CNG cAMP sensor, membrane potential fluorescence; activation: at 57.1 µM (top of the series) unless noted; note: nearly all actives have a fitted effect of over 55% in size; for activation: % of control where 0% means no effect
Summary of the method: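 Parental HEK 293 cells stably expressing a modified CNG channel (no TSHR) report cAMP rise as membrane depolarization. Membrane potential dye with 100 uM RO 20-1724 was loaded for 60 min at room temperature, then compound added for 30 min; fluorescence read at 590 nm.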
Potency is the fitted concentration of half-maximal effect; tags give direction and shape of the fitted curve.

Compound	activation	Potency
CCOC(=O)C1=NO[C@@]2(C=C(Br)C3(OCCCO3)[C@H]3O[C@H]32)C1	inactive: -8.82% [at 11.4 µM]	
O=C(CN1C(=O)CC(c2ccccc2)=Nc2ccccc21)NCc1ccco1		inconclusive [activator, partial curve]
O=C(O)C1CCN(C(=O)c2scc3c2OCCO3)CC1		inconclusive [activator, partial curve]
CCOc1ccc(NC(=O)c2oc3ccccc3c2NC(=O)C(C)C)cc1		inconclusive [activator, single point]
COC(=O)C1=C(NC(=O)c2cccs2)CCS1		inconclusive [activator, single point]
Cc1nn(Cc2ccccc2)c(Cl)c1C(=O)OCc1nnc(-c2ccc(Cl)cc2)o1		active: 25.1 µM
CC(C)CCNC(=O)NC(=O)CSc1nnc(COc2ccccc2Cl)o1	inactive: -21.8%	
COc1ccc(F)cc1S(=O)(=O)N1CCCN(S(=O)(=O)c2cc(F)ccc2OC)CC1	inactive: 12.3%	
Cc1ccc2c(c1)N(CC(=O)N(Cc1ccc3c(c1)OCO3)CC1CCCO1)C(=O)C(C)O2 (stereo unspecified)		active: 20 µM
Clc1ccc(C2=Nn3c(nnc3-c3n[nH]c4c3CCC4)SC2)cc1		active: 25.1 µM
CCn1c(CNc2nc(-c3ccccc3)cs2)nnc1SCC(=O)NCc1ccco1	inactive: 2.27%	
Cc1ccc(-c2nn3c(-c4ccco4)nnc3c3ccccc23)cc1S(=O)(=O)NCC1CCCO1 (stereo unspecified)		active: 20 µM
NC(=O)CSc1nc2scc(-c3ccco3)c2c(=O)n1-c1ccccc1	inactive: -7.6%	
O=c1c(O)c(-c2ccc(O)cc2)oc2cc(O)ccc12	inactive: -17%	
Cc1ccc(-n2cc3c(=O)n(C)c(=O)n(C)c3c2)cc1C	inactive: -1.06%	
O=C(O)c1ccc(NCc2nc3cc4ccccc4cc3[nH]2)cc1		inconclusive [activator, single point]
CCOC(=O)c1c(C)c(-c2ccccc2)n(CC(=O)N2CCCC2)c1C		inconclusive [activator, single point]
C=CCN1CCc2c(cc(O)c(O)c2Br)[C@H](c2ccccc2)C1		inconclusive [activator, full curve, poor fit]
CC1(C)Cc2ccccc2-c2nnc(-c3cccc(O)c3)n21		inconclusive [activator, single point]
CC(=O)N1CCC2(CC1)CCN(c1ccncc1)CC2		inconclusive [activator, single point]
Cc1ccnc(NC(=O)CCC2CCCCC2)c1		inconclusive [activator, partial curve]
COc1ccc(C(=O)CSc2nnc(CNc3ccc(C)cc3C)o2)cc1		inconclusive [activator, single point]
CCOC(=O)C1CCN(C(=O)C2CC(=O)N(c3ccc(C)cc3)C2)CC1 (stereo unspecified)	inactive: 10.9%	

Compound	activation	Potency
CN1C(=O)c2oc3ccc(Br)cc3c(=O)c2C1c1ccncc1 (stereo unspecified)		inconclusive [activator, partial curve]
O=C(Nc1cccc(-c2nnc(-c3ccccc3)o2)c1)C1CCCCC1		inconclusive [activator, single point]
CCOC(=O)CSc1nc2c(sc(=S)n2CCc2ccccc2)c(=O)n1Cc1ccco1		inconclusive [activator, partial curve]
O=C(COc1ccccc1)Nc1nc(-c2cccs2)cs1		active: 25.1 µM
c1ccc(-c2noc(CSc3nnc(Cc4cccs4)n3-c3ccccc3)n2)cc1		active: 25.1 µM
Cc1cc(NC(=O)c2cccc(COc3ccc(Br)cc3)c2)no1		inconclusive [activator, partial curve]
O=C(O)c1ccc(NS(=O)(=O)c2ccc(Cl)cc2)cc1		inconclusive [activator, single point]
COc1ccccc1N1CCN(S(=O)(=O)c2ccc(Cl)s2)CC1		inconclusive [activator, single point]
Cc1c(C(=O)NCCC2=CCCCC2)oc2ccc(S(=O)(=O)N3CCOCC3)cc12		inconclusive [activator, single point]
C/C(=C\C(=O)c1ccc(C)o1)Nc1ccc2c(c1)OCO2		inconclusive [activator, single point]
Cc1ccc(C2C(C#N)=C(N)SC(N)=C2C#N)c(C)c1	inactive: 16.3%	
Cc1oc(-c2ccccc2F)nc1CS(=O)(=O)CC(=O)NCCCc1ccccc1		inconclusive [activator, partial curve]
COC(=O)COc1ccc(S(=O)(=O)N2CCN(c3ccccc3F)CC2)cc1C		inconclusive [activator, full curve]
O=C(CN1CCCC1)N1CCCc2c1c(=O)oc1ccc(OCc3ccccc3)cc21		inconclusive [activator, partial curve]
Cc1noc(C)c1C(=O)N1CCC[C@@]2(CCN(C(c3ccccc3)c3ccccc3)C2)C1	inactive: 9.21%	
COc1cccc(S(=O)(=O)N2CCN(c3ccccc3F)CC2)c1		inconclusive [activator, single point]
Cc1ccc(OC(=O)CCC(=O)Nc2ccc(S(=O)(=O)Nc3cc(C)on3)cc2)cc1		inconclusive [activator, single point]
COC(=O)Nc1ccc(S(=O)(=O)N2c3ccccc3CCC2C)cc1 (stereo unspecified)		inconclusive [activator, partial curve]
CC(C)(C)NC(=O)c1ccccc1-c1nc(-c2ccccc2Cl)no1		active: 15.8 µM
OC1CNCc2cc3c(cc21)OCCO3 (stereo unspecified)	inactive: 0.872%	
Cc1cc(C)c2c(=O)[nH]c(SCC(=O)N3CCCCC3)nc2n1	inactive: 9.85% [at 11.4 µM]	
CC1CCCC(NC(=O)COC(=O)Cc2cn3ccsc3n2)C1C (stereo unspecified)		active: 31.6 µM
CN1C(=O)N(CN2CCCCC2)C2C1N(C)C(=O)N2CN1CCCCC1 (stereo unspecified)		inconclusive [activator, single point]

— PubChem BioAssay AID938 (National Center for Advancing Translational Sciences (NCATS), 2007)
